Out of some 150,000 compounds screened, about 540 (0.36%) showed an effect of 50% or more. Some of the results follow.
Tested on: Plasmodium falciparum
Experiment: Primary screen in NF54 nanoGlo assay, in single point, at 2uM, 72h; a lower Z score goes with more inhibition
Type: functional, Erythrocyte
Conditions: timepoint 72 hour

Row | SMILES | % Inhibition | Z score
1 | CNC(=O)[C@@H](NCc1nc2cc(C)ccc2s1)C(C)C | -7% | 0.65
2 | Cc1nc(CCN)cc(N2CCC[C@H]2c2nc(-c3ccccc3)no2)n1 | -9% | 0.93
3 | CCn1c(=O)c2c(ncn2CC(=O)c2ccc(C)cc2)n(-c2ccc(F)cc2F)c1=O | -6% | 1.01
4 | OCCO[C@H]1C[C@@H](O)C12CCN(Cc1coc(-c3ccccc3)n1)CC2 | -1% | 0.23
5 | Cc1cc(Cl)ccc1C(=O)Nc1ccc(CN2CCCC2=O)cc1 | -12% | 1.36
6 | CCN(CC)S(=O)(=O)c1ccc(N2CCCC2)c(C(=O)OCC(=O)Nc2cc(C)on2)c1 | -5% | 0.8
7 | Cc1ccc(-c2ccc3nncn3n2)cc1S(=O)(=O)Nc1ccc(Cl)cc1 | -20% | 2.69
8 | COc1cc(OC)cc(-c2nn(CN(C)CC(=O)NC(C)(C)C)c(=S)o2)c1 | 9% | -1.11
9 | COc1ccc2[nH]c(CN3C[C@@H]4CC[C@H]3CN(CC(=O)N(C)C)C4)c(C)c2c1 | -18% | 1.7
10 | c1ccc(CCCCn2ccnc2-c2cc3n(n2)CCCNC3)cc1 | 3% | -0.53
11 | CCCN(Cc1cccc(Cl)c1)C(=O)CCc1n[nH]c(N)n1 | -4% | 0.61
12 | CC(=O)N1CC(N[C@@H](C)c2cc3ccncc3s2)C1 | -5% | 0.85
13 | Cc1ccc(Br)c(C(=O)O)c1N | -11% | 2.14
14 | CCC1CCCN1C(=O)[C@H]1CCCN1C(C)=O (stereo partly drawn) | -1% | 0.14
15 | CN(Cc1csc(-c2ccccc2)n1)C(=O)c1ccc2nonc2c1 | -2% | 0.43
16 | CN1CCNC[C@H]1c1ccccc1Cl | 5% | -1.01
17 | CCN1CCN(C(=O)c2c(CC3CCCC3)n(CCOC)c(C)cc2=O)CC1 | -9% | 1.1
18 | Cc1nc(CCNC(=O)CCC2CCCC2)no1 | 5% | -0.6
19 | COc1ccc(S(=O)(=O)N2CCOCC2)cc1NC(=O)Cc1ccc(Br)cc1 | -5% | 0.77
20 | CCn1cc(NC(=O)C2CCN(S(=O)(=O)c3c(C)nn(C)c3Cl)CC2)cn1 | -10% | 1.61
21 | COc1cccc(-n2cc(CNC(=O)NCc3ccc(NC(=O)C(C)C)cc3)nn2)c1 | 11% | -1.37

Row | SMILES | % Inhibition | Z score
22 | CCC(NC(=O)NC1CCOC(c2ccccc2)C1)c1nccs1 (stereo not drawn) | -4% | 0.45
23 | Cc1cc(C(=O)N2CC[C@H](Oc3cncc(N(C)C)n3)C2)c(C)o1 | -9% | 0.99
24 | O=C(c1ccc(F)c(Cl)c1)N1CCCC[C@@H]1CCN1CCCC1 | 1% | -0.16
25 | CC(C)c1csc(-c2nnsc2N)n1 | -3% | 0.39
26 | O=C(CCN1CCN(S(=O)(=O)c2ccccc2F)CC1)N[C@H](c1ccccc1)c1cccs1 | 1% | -0.12
27 | COCCN(C)C(=O)Nc1ccc(C)cn1 | -4% | 0.35
28 | C[C@H](C(=O)NCCN1CCOCC1)C1CC[C@@]2(C)Cc3sc(-c4ccccc4)nc3[C@@H](C)[C@@H]2[C@H]1O (stereo partly drawn) | 21% | -2.46
29 | O=S(=O)(Cc1ccccc1F)N1CCCC[C@H]1c1nnc(-c2cnccn2)[nH]1 | 0% | -0.01
30 | COc1cc(Cl)c(S(=O)(=O)N(C)c2cnccn2)cc1OC | 0% | -0.08
31 | Cn1cc(-c2ccc(C(=O)c3ncc[nH]3)cc2)cn1 | -2% | 0.46
32 | CCCCC1CCCC1NC1CCN(C)C1=O (stereo not drawn) | 1% | -0.18
33 | CC(C)(C)C[C@H](NC(=O)N[C@H]1CC[C@@H](CO)CC1)C(F)(F)F | 4% | -0.48
34 | CN1C(=O)C(C)(C)c2cc(S(=O)(=O)N3CCC[C@H](C(=O)NCc4cccnc4)C3)ccc21 | -4% | 0.81
35 | O=C(N[C@@H]1CN(Cc2ccccn2)C[C@H]1CO)c1ccco1 | -13% | 1.83
36 | c1ccc(-c2cc(N3CCN(c4ccccn4)CC3)nn2-c2ccccc2)cc1 | 2% | -0.25
37 | COc1ccc(OC)c(C(=O)N2C[C@H]3CC[C@@H](C2)N(CC2CC2)C3=O)c1 | -10% | 1.96
38 | CN(CC1(O)CCCC1)C(=O)C1CCN(C2CC2)CC1 | -5% | 0.74
39 | Cc1ccnc([C@@H](NC(=O)c2c[nH]c3cc(C)nn3c2=O)C2CC2)c1 | -2% | 0.39
40 | COc1ccc(OC)c(NC(=O)c2cccc(-c3nc(-c4ccc(F)cc4)no3)c2)c1 | -8% | 0.95
41 | Cc1nc(C(C)(C)N)n(-c2ccc(C(C)C)cc2)n1 | -14% | 2.27
42 | Cc1ccc(CNCc2ccc(N3CCCC3=O)cc2)o1 | -18% | 1.5

Row | SMILES | % Inhibition | Z score
43 | CCOC(=O)[C@@H](c1cc(Cl)cc(Cl)c1)N(CC)Cc1nc(CC)no1 | 1% | -0.22
44 | Cc1ncccc1Oc1ncnc(N2CC[C@H](N3CCOCC3)[C@@H](O)C2)c1C | -4% | 0.51
45 | Cc1ccc(CN(CC2CC2)S(=O)(=O)c2csc(C(=O)O)c2)cn1 | -5% | 0.76
46 | CC(C)n1cc(Br)cc1C(=O)N1CCC[C@@H]1CN | -7% | 1
47 | C[C@@]1(C(=O)NC2CCCCCC2)Cn2nc(C3CC3)cc2C(=O)N1Cc1cccc(Cl)c1 | -5% | 0.8
48 | CCCn1c(=O)c(C(=O)N2CCC[C@H](C(=O)OCC)C2)nn(-c2cccc(C)c2)c1=O | -15% | 1.46
49 | C=CCNC(=O)c1csc(-c2ccc(OCc3ccccc3)cc2Cl)n1 | 10% | -1.08
50 | Cc1cc(N2CC(Cn3cccn3)C2)ncn1 | -15% | 1.71
51 | CN(CC(=O)Nc1ccccc1C(F)(F)F)c1ccn(C)n1 | 0% | -0.01
52 | Cc1cc(COc2cc(OCc3cc(C)on3)c(Cl)cc2Cl)no1 | 0% | 0
53 | NS(=O)(=O)c1ccc(C(=O)N(CC2CC2)CC2CC2)cc1F | -4% | 0.61
54 | CC(=O)N1CCC(C(=O)Nc2nc(-c3ccc(C)cc3)c(-c3ccc(C)cc3)s2)CC1 | -6% | 0.87
55 | CCOc1ccc(CN2CC[C@H](N(C)CCc3ccccn3)[C@@H](O)C2)cc1Cl | -17% | 2.49
56 | O=C(NCCN1CCCCC1)[C@H]1CN(S(=O)(=O)c2cccnc2)CC12CCCCC2 | 34% | -3.85
57 | CCS(=O)(=O)Oc1ccccc1CN(CC1CC1)C(=O)c1ccccc1F | -16% | 1.65
58 | Cc1ccnn1CCC(=O)N1CCC[C@H](c2nnc3ccccn23)C1 | 9% | -1.22
59 | Cc1cc(-c2nc3ccccc3[nH]2)c(C)n1Cc1cccnc1 | 7% | -1.01
60 | NC(=O)C1C2CCCC2CN1C(=O)C1CCC2CCCCC2C1 (stereo not drawn) | -14% | 2.2
61 | Cc1ccccc1[C@H]1C[C@@H](O)[C@@H](O)[C@@H]1NC(=O)C(C)C | -5% | 0.88
62 | Cc1cc(NC(=O)[C@@H]2COCC(=O)N2Cc2cccs2)no1 | -10% | 1.72
63 | Cc1nc(C)c(C(=O)Nc2ccccc2CN2CCc3ccccc32)o1 | -4% | 0.49

Row | SMILES | % Inhibition | Z score
64 | CCc1nc2c(c(=O)n1CC(=O)Nc1ccccc1OC)CN(Cc1ccccc1)CC2 | -10% | 1.6
65 | O=C(c1ccc(S(=O)(=O)Nc2cccc(C(F)(F)F)c2)cc1)N1CCOCC1 | 10% | -0.96
66 | Cn1cc(CCC(=O)Nc2cnccn2)cn1 | -9% | 0.79
67 | c1ccc(C2CCN(Cc3ccc4nccnc4c3)CC2)nc1 | 6% | -0.8
68 | CC#CCN(C)C(=O)C1CCC2(CC1)NC(=O)NC2=O (stereo not drawn) | 1% | -0.17
69 | Cc1ccc2sc(CN3C(=O)CN(C)C3=O)nc2c1 | -14% | 2.58
70 | Cc1cc(N2C[C@@H](CN3CCC(O)CC3)[C@@H](CO)C2)nc(-c2ccccc2)n1 | -13% | 1.39
71 | Brc1ccc(-c2noc(CCc3cscn3)n2)o1 | -12% | 1.54
72 | Cc1ccnc(NCCc2cncn2C)n1 | -15% | 2.04
73 | CCN(CC)S(=O)(=O)c1ccc(N2CCOCC2)c(NC(=O)CCC2CCCCC2)c1 | -11% | 1.48
74 | CN1CCNC(=O)C12CCN(Cc1cccc(O)c1)CC2 | 1% | -0.16
75 | Cc1ccc(NC(N)=NCc2ccccn2)cc1C | -8% | 0.91
76 | CCc1nc(CC)n(Cc2nnc(-c3ccc(C#N)cc3)o2)n1 | -15% | 1.47
77 | Cc1nnc(NCC(=O)NCc2ccco2)c(C#N)c1C | -9% | 1.7
78 | C[C@H]1CNC[C@@H]1Cc1nc(C(C)(C)c2ccccc2Cl)no1 | -3% | 0.37
79 | CCc1cnc(NC(=O)c2cc(C(F)(F)F)c[nH]c2=O)s1 | -2% | 0.18
80 | COc1ccc(OCc2nc([C@@H]3CCCO3)n(C3CCCCC3)n2)cc1 | -12% | 1.84
81 | Cc1cc(NCCCOC2CCOCC2)nc(C)n1 | -4% | 0.67
82 | CCn1nc(-c2ccc(OC)c(S(=O)(=O)N3CCCCCC3)c2)c2c(c1=O)CCCC2 | -20% | 3.07
83 | CCc1cc(C(=O)N[C@@H](C)COC)no1 | -15% | 1.74
84 | CCc1nc(NCCC(=O)N2CCCC2)c2cc(Cl)cc(Cl)c2n1 | -4% | 0.49

From ChEMBL document CHEMBL4888484, “Replenishing the malaria drug discovery pipeline: Screening and hit evaluation of the MMV Hit Generation Library 1 (HGL1) against asexual blood stage Plasmodium falciparum ,using a nano luciferase reporter read-out” (2022)
